About 6,400 (1.6%) of roughly 410,000 compounds were called active. The inconclusive results got no clear call from the source; some entries with a clear call stand among them for comparison. Calls come from the whole dose curve; as a rule, active = well fitted inhibition curve with a large enough effect; inconclusive = small, poorly fitted or top-dose-only effect; inactive = no such curve, though single readings can be large or run the other way. No potency is given beside an inconclusive call; the fits are too rough.
target: Glucagon-like peptide 1 receptor (Homo sapiens) (UniProt P43220); test: qHTS of GLP-1 Receptor Inverse Agonists (Inhibition Mode); details: HEK293 GLP-1R CRE-luciferase, luminescence, 24 h, GLP-1R form is constitutively active; activity change, negative = inhibition: at 38.3 µM (top of the series) unless noted; note: nearly all actives have a fitted effect of over 55% in size
Sequence of UniProt P43220 (P43220 whole entry, looked up): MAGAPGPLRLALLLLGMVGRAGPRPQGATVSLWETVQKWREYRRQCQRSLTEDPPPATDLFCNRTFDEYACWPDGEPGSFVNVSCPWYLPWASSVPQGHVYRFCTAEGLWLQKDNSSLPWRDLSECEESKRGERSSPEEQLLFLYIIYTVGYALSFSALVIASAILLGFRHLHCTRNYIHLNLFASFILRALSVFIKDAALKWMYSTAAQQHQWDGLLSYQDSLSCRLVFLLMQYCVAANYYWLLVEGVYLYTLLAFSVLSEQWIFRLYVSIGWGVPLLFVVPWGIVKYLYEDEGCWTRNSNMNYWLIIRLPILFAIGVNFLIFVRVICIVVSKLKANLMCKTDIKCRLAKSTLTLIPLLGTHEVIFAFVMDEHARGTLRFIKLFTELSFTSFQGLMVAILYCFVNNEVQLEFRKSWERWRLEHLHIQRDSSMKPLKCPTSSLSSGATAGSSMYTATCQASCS
Outline: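 Inverse agonists were sought by their lowering of basal cAMP reporter luciferase output in HEK293 cells stably carrying constitutively active human GLP-1R, after 24 h compound treatment.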
% is set by controls: 0 for no effect and ±100 for the full control effect; potency is the fitted concentration of half-maximal effect; tags give direction and shape of the fitted curve.

| Compound | Potency | activity change, negative = inhibition |
| --- | --- | --- |
| COC(=O)c1ccccc1NC(=S)NC(=O)CC(C)C | inconclusive [inhibitor, single point] |  |
| Cc1ccc(CNC(=O)Cc2ccc(-n3cccc3)cc2)cc1 | inconclusive [inhibitor, full curve, poor fit] |  |
| N=C1C(c2nc3ccccc3s2)=C(O)CN1NC(=O)c1ccc([N+](=O)[O-])cc1 | inconclusive [inhibitor, single point] |  |
| CC(C)Sc1snnc1-c1ccccc1 | inconclusive [inhibitor, partial curve, poor fit] |  |
| O=S(=O)(NCc1ccc(F)cc1)c1cc(Br)ccc1Br | inconclusive [inhibitor, partial curve, poor fit] |  |
| CCn1c(CNc2nc(-c3ccccc3)cs2)nnc1SCC(=O)NCc1ccccc1 | active: 11.2 µM |  |
| N=c1c2c(n(Cc3ccc(Cl)c(Cl)c3)c3c1CCC3)CCCC2 | inconclusive [inhibitor, full curve, poor fit] |  |
| O=C(CSc1nc(Nc2ccccc2)nc(N2CCOCC2)n1)Nc1ccc(Br)cc1F | inconclusive [inhibitor, full curve, poor fit] |  |
| CCOC(=O)c1cnn(-c2ccccc2)c1-n1cccc1C(=O)C(=O)Nc1ccc(F)cc1 | inconclusive [inhibitor, partial curve, poor fit] |  |
| Cc1ccc(S(=O)(=O)N2[C@@H](c3ccc(Cl)cc3)C(C(=O)O)=CC[C@H]2c2ccc(Cl)c(Cl)c2)cc1 | active: 3.55 µM |  |
| Cc1cc(N2CCCCC2)nc2ccc(NC(=O)CCC(=O)N3CCN(c4ccccc4)CC3)cc12 | inconclusive [inhibitor, single point] |  |
| COc1ccc(NC(=O)c2cc(C)cc(C)c2)cc1[N+](=O)[O-] | inconclusive [inhibitor, single point] |  |
| O=C(CSCc1ccc(F)cc1)N1CCc2c([nH]c3ccccc23)C1c1ccc(Cl)cc1 (configuration not stated) | inconclusive [inhibitor, partial curve, poor fit] |  |
| COc1ccc(CN(C)C(=O)C2CSC3(C)CCC(=O)N23)cc1 (configuration not stated) |  | inactive: 7.01% |
| CCc1ccccc1NC(=O)c1noc2c1CC(C(C)(C)C)CC2 (configuration not stated) | inconclusive [inhibitor, single point] |  |
| COc1ccc(CCC(=O)NC2CC(=O)N(c3ccc(OC)cc3)C2)cc1 (configuration not stated) |  | inactive: -3.85% |
| COc1ccccc1OCCC(=O)OCC(=O)Nc1ccc(Br)cc1 |  | inactive: 0.495% |
| COc1ccccc1-c1sc2cc3c(cc2c1C#CC1(O)CCCCC1)OCO3 | inconclusive [inhibitor, single point] |  |
| C/C(=N\NC(=S)NCc1ccccc1)c1ccc(Cl)cc1 | inconclusive [inhibitor, partial curve, poor fit] |  |
| Cc1cc(F)ccc1NC(=O)c1ccc(NS(=O)(=O)c2cccs2)cc1 | inconclusive [inhibitor, single point] |  |
| CCN(CC)S(=O)(=O)c1ccc(NC(=O)CNC2CCCCC2)cc1 | inconclusive [inhibitor, partial curve] |  |

| Compound | Potency | activity change, negative = inhibition |
| --- | --- | --- |
| C/C(=N\Nc1ccc(S(=O)(=O)N2CCCCC2)cn1)c1cccc(Br)c1 | inconclusive [inhibitor, single point] |  |
| Cc1ccc([C@H]2C[C@@H](n3cc(-c4ccc(F)cc4)nn3)[C@H](O)CN2C(=O)C2CCCCC2)cc1 | inconclusive [inhibitor, single point] |  |
| Cc1scc(C(=O)N/N=C/c2ccc(Cl)s2)c1C | inconclusive [inhibitor, single point] |  |
| Fc1ccccc1N1CCN(c2nc(-c3cccs3)nc3ccccc23)CC1 | inconclusive [inhibitor, single point] |  |
| O=C(CNCC1CCCCC1)Nc1ccc(OC(F)(F)F)cc1 | inconclusive [inhibitor, single point] |  |
| O=C(CCC(=O)c1ccc(F)cc1)Nc1cccc(C(F)(F)F)c1 | inconclusive [inhibitor, partial curve, poor fit] |  |
| CC(C)N(Cc1ccccc1)S(=O)(=O)c1ccc(-c2cc(C(F)(F)F)on2)s1 | inconclusive [inhibitor, partial curve, poor fit] |  |
| COc1ccccc1N(CC(=O)Nc1ccccc1C(F)(F)F)S(=O)(=O)c1cccs1 | inconclusive [inhibitor, single point] |  |
| CCOC(=O)C1(Cc2ccccc2C(F)(F)F)CCN(C(=O)c2cc(C)n(C)n2)CC1 | inconclusive [inhibitor, single point] |  |
| CC(c1ccco1)N(C(=O)C12CC3CC(CC(C3)C1)C2)c1ccccn1 (configuration not stated) | inconclusive [inhibitor, full curve, poor fit] |  |
| Cc1[nH]c2ccccc2c1C(=O)COC(=O)c1ccc2c(=O)n3c(nc2c1)CCC3 | inconclusive [inhibitor, single point] |  |
| O=C(c1cc(COc2cccc(C(F)(F)F)c2)on1)N1CCSCC1 | inconclusive [inhibitor, partial curve, poor fit] |  |
| CC(=O)Nc1cc(C(=O)N2CCc3ccccc3C2)ccc1Sc1ccc(Cl)cc1 | inconclusive [inhibitor, partial curve, poor fit] |  |
| O=C1Nc2ccc(Cl)cc2C(=O)C1(F)c1ccccc1 (configuration not stated) | inconclusive [inhibitor, partial curve, poor fit] |  |
| Cc1ccc(-c2nnc3cccc(Cl)n23)cc1 |  | inactive: 6.71% [at 0.307 µM] |
| CC(C)C(C)NC(=O)COn1nnc2ccc(S(=O)(=O)N3CCOCC3)cc21 (configuration not stated) | inconclusive [inhibitor, single point] |  |
| Nc1ccc(C(=O)N/N=C\C=C\c2ccc([N+](=O)[O-])cc2)cc1 |  | inactive: -4.82% |
| Cc1cc(C(=O)NCCCN2CCN(c3cc(Cl)ccc3C)CC2)n(-c2ccccc2)n1 | inconclusive [inhibitor, partial curve, poor fit] |  |
| Cc1cc(-c2ccccc2)cc(C)n1 |  | inactive: 10.3% |
| COc1cccc(-c2cc(C(=O)Nc3c(C)nn(Cc4ccccc4C)c3C)no2)c1 | inconclusive [inhibitor, partial curve, poor fit] |  |
| CC(=O)c1ccc(N2CCN(S(=O)(=O)c3cc(-c4cc(C)no4)ccc3C(C)C)CC2)cc1 | inconclusive [inhibitor, partial curve] |  |

| Compound | Potency | activity change, negative = inhibition |
| --- | --- | --- |
| CCc1ccccc1-n1c(C)nc2cc(C(=O)NCCc3ccc(Cl)cc3)ccc21 | inconclusive [inhibitor, partial curve, poor fit] |  |
| Cc1ccc(NS(=O)(=O)c2ccc(Cl)c(C(=O)Nc3ccccc3-c3nc4ccccc4[nH]3)c2)cc1C | inconclusive [inhibitor, partial curve, poor fit] |  |
| COc1ccc(OC)c(/C(C)=N\NC(=O)c2cc3cc(Cl)ccc3n2C)c1 | inconclusive [inhibitor, full curve] |  |
| COc1ccc(OC)c(NC(=O)c2cc(-c3cc(F)ccc3OCC3CCCO3)n[nH]2)c1 (configuration not stated) | inconclusive [inhibitor, partial curve, poor fit] |  |
| O=C(NCCCc1nc2ccccc2n1Cc1ccc(Cl)cc1)C1CCCCC1 | inconclusive [inhibitor, single point] |  |
| O=C(c1sc2cc(Cl)ccc2c1Cl)N1CCN(CCc2ccccn2)CC1 | inconclusive [inhibitor, single point] |  |
| COc1ccc(NC(=S)NCCc2ccc(Cl)cc2)c(OC)c1 | inconclusive [inhibitor, single point] |  |
| CSCC[C@H](NC(=O)OC(C)(C)C)c1nnc(SCc2ccc(F)cc2)o1 | inconclusive [inhibitor, partial curve, poor fit] |  |
| Nc1nc(-c2cc(Cl)cc(Cl)c2OC(F)F)cs1 | inconclusive [inhibitor, single point] |  |
| Cc1cccc(NC(=O)CSc2nc(C)c(CC(=O)c3ccc(Br)cc3)c(C)c2C#N)c1C |  | inactive: 3.19% |
| CC(=O)C1=C(O)C(=O)N(CCc2c[nH]c3ccccc23)C1c1ccc(O)cc1 (configuration not stated) |  | inactive: 3.99% |
| CCCCn1nc(NC(=O)c2cccc(Cl)c2)c2cc3cccc(C)c3nc21 |  | inactive: 2.2% |
| Cc1oc(-c2cccc(Cl)c2)nc1CN1CCCC(C(=O)NC(C)c2ccc3c(c2)OCCO3)C1 (configuration not stated) | inconclusive [inhibitor, single point] |  |
| CCN1CCc2c(C#N)c(N3CCOCC3)nc(N3CCOCC3)c2C1 |  | inactive: -2.18% |
| CC(=O)N1Cc2cc(C(=O)NCC(F)(F)F)nc(-c3cccc(-c4cccnc4)c3)c2[C@@H]1CCO | inconclusive [inhibitor, full curve, poor fit] |  |
| Cc1nc2nc(SCC(=O)NC3CCCCC3)nn2c(C)c1Cc1ccccc1Cl | inconclusive [inhibitor, single point] |  |
| Cc1ccc(C(CNC(=O)c2ccco2)N2CCN(C)CC2)cc1 (configuration not stated) |  | inactive: 2.32% |
| O=C(/C=C/c1ccco1)Nc1nc(-c2ccccc2)cs1 |  | inactive: -3.89% |
| COC(=O)c1ccc2c(c1)N(Cc1ccc(Cl)cc1)C(=O)c1ccccc1S2 | inconclusive [inhibitor, single point] |  |
| O=C(NC1CCCCC1)C(c1ccc(C(F)(F)F)cc1)n1c(=O)c(-c2ccco2)nc2ccccc21 (configuration not stated) | inconclusive [inhibitor, single point] |  |
